Some of the results follow.

To fix the notation:
B1: chr9:50470998:50470999:-_ENSMUSG00000032064_ENSMUST00000117646|mus_hu|FALSE|FALSE (ssRNA)
RNA: GGGAGUUCUACAGUCCGACGAUCCAGUUAAAACUGGUUAUCACUUUGAUAAUCAGAAGCCUCUGGUGUAACAUAGUCUUCAUGAAAACAUAUUGUAAAACAGGGAGAAUACACAGUAAUAAUCUCUUUGAAAGCAAUGGCUGUCAACAGAGGAUUGAGCAUCA
B2: chr7:65705844:65705845:+_ENSG00000169902_ENST00000304842|hu_mus|hu_hu_hu_mus_False|1_88 (ssRNA)
RNA: GGGAGUUCUACAGUCCGACGAUCAAACGGAUCUUUGUUACAUAAAUAAGGGGCUGGCUCCCCAUGUUUAACAAUGACCUCCAGAAGGAAGGCUUGCAUGGCAGAAUCUAGCACUUCAUCUGUGACACCCGCCUCAUCCAGGCGCAACAGAGGAUUGAGCAUCA
B3: chr1:163112212:163112213:-_ENSG00000143248_ENST00000313961|hu_hu|hu_hu_hu_mus_False|98_98 (ssRNA)
RNA: GGGAGUUCUACAGUCCGACGAUCUUUUAUUAUCAGUAAGCAUGAGUUACAUACUAGGCAAAGUAUUGGAUACAAUAAUCAGGAAACAAACACUAUUGGUCCAGAAUUUAAAACUUUAUGAGCGAAGUGCUGGCACAGGACUUACAACAGAGGAUUGAGCAUCA
B4: chr4:73765705:73765706:+_ENSMUSG00000049122_ENSMUST00000084474|mus_hu|FALSE|FALSE (ssRNA)
RNA: GGGAGUUCUACAGUCCGACGAUCGUAUCUUGUGAGCUCUUCUUUAAUCUUCAAGGGUUCAUGUGGGUAGAAUUUCACUCUAAAGCACAUGGUGUAUGGUGGAUGAGUUUUCAUUUGCUUGAAGAUGGACUUGUUAGGUUCAAGCAACAGAGGAUUGAGCAUCA
B5: chr6:41757443:41757444:+_ENSG00000214736_ENST00000398881|hu_mus|hu_hu_hu_mus_False|8_98 (ssRNA)
RNA: GGGAGUUCUACAGUCCGACGAUCGAACCGUGCAGAGACCAGAGAAUAGCCGACACUGGGGGAUGGGGGGGCAGUGGGGGGGGGUUCAGGCAAGGAGAGGGAGUCAACUUCAGCUGCCACUCAGGUAGCUGCCAUCAGUCACAGCAACAGAGGAUUGAGCAUCA
B6: chr12:48362563:48362564:+_ENSG00000134291_ENST00000256686|hu_hu|hu_hu_hu_mus_False|1_1 (ssRNA)
RNA: GGGAGUUCUACAGUCCGACGAUCUCCGUCAAGCCCUUCGAUAGACCCUUGCGGGGGAAACUGUAAUCACUUUGUAUGGGGAAGGAAAAGAAACGCCAAAAACUUUCCAAAAAGCGGGGGUGGGGUGAGGCGGGAGGUUGGGAACAACAGAGGAUUGAGCAUCA
B7: chr13:85337103:85337104:+_ENSMUSG00000021548_ENSMUST00000022030|mus_mus|FALSE|FALSE (ssRNA)
RNA: GGGAGUUCUACAGUCCGACGAUCAUCGAUGAGGAAGCCUUCAAAUGGUCUGUAUGGAUUGUGGACAAUAAGGUGAAAAUUAAGUUGUUGUAUAAGUAGUAGUUCAUAUUCCAAAAUCUGUUCCAGUGCCCUCUCCUGUCCAAGCAACAGAGGAUUGAGCAUCA
B8: 84973231_84973351_108_3pUTR_ENSMUSG00000010608_ENSMUST00000048155|mouse|control|control (ssRNA)
RNA: GGGAGUUCUACAGUCCGACGAUCGGUACUGUCUUCGCGGCCUCUGGGCGUCAGGUGAUGGAGUGGGGCUCCACCGGUUCGAGGUGUCUGCGCGCCGCCCGACUCUAGAGACUGGUUCCGAAGCGCCUACUCGCCUAGGCCGCACAACAGAGGAUUGAGCAUCA
B9: chr1:60041781:60041782:+_ENSMUSG00000041040_ENSMUST00000036540|mus_hu|mus_mus_mus_hu_False|28_88 (ssRNA)
RNA: GGGAGUUCUACAGUCCGACGAUCAAGUUUACAAUAGUAAAGUAAAUCAAAUUUAGUCAAAUUUUCUUUUAUUUUCCUUCACAAAAGAAAAUCUUUAUAACCCAGUCCAAUCCCAGAACAUAGUGAAAGCUAUAAAUUCUGACUCAACAGAGGAUUGAGCAUCA
B10: chr1:241675328:241675329:-_ENSG00000091483_ENST00000366560|hu_hu|motif|central (ssRNA)
RNA: GGGAGUUCUACAGUCCGACGAUCGCUUUUAUUAACAUGAUCGUUGGGAUGCACAGGUAUCUUGCUGCCAAGUUCACCUCCGGACAUUUCAAUUGCUCUAUUGCUAAUGACUUCAUUUACAUUCAUAUUUGUCUGAGUUCCUGACAACAGAGGAUUGAGCAUCA
B11: chr17:21098601:21098602:+_ENSMUSG00000007564_ENSMUST00000007708|mus_mus|FALSE|FALSE (ssRNA)
RNA: GGGAGUUCUACAGUCCGACGAUCGGCUAAGACCUUGGGGAUGAUAGUGGCAUGGGCCCACUCCUUCCCGAACUUCUCUACUAAUUUCUUAAGGUUGCUGGUGGCAGCCUCACGGAUAGCAUAGACAUGAUCCACUAGCCAGGCCAACAGAGGAUUGAGCAUCA
B12: chr5:24101842:24101843:-_ENSMUSG00000028949_ENSMUST00000030791|mus_mus|FALSE|FALSE (ssRNA)
RNA: GGGAGUUCUACAGUCCGACGAUCCUCCUGGAUGUCCACCCGCUUCCGCAUGAUGGUUUGAUCCAGUUUCCUCUCAAAUGCUAGGAGGUCCAUGUAAGCCUGGGACUCGGGUACCAGCUCCCGAAUCCUUUGAGGGAGGAUUUUCAACAGAGGAUUGAGCAUCA
B13: chr12:111868959:111868960:+_ENSMUSG00000018707_ENSMUST00000018851|mus_mus|FALSE|FALSE (ssRNA)
RNA: GGGAGUUCUACAGUCCGACGAUCCAGAGUGAGCCACUCAUUGAUUUUGGGGUGUUCAGUGAUGGACACUGGAGUUUUAAACAUAACCUCCUCCCCUUCUCGGGAUGAGAUGCCGAGGACCACAGAGUUAUCCUCAUUUAAGAUCAACAGAGGAUUGAGCAUCA
B14: 10421687_10422949_824_3pUTR_ENSMUSG00000022503_ENSMUST00000023146|mouse|control|control (ssRNA)
RNA: GGGAGUUCUACAGUCCGACGAUCGACAAAAAAAGACUGGCCUUUGUCACAGCUCUUGCCUAUGUGUGGAUCCAGCGGCACUUUGCCCAGAAGUGGAAUCCUCAGAUCCUGGCACAUGGCCUCUGCACCCCCAGUCGUGGGAGGCAACAGAGGAUUGAGCAUCA
B15: chr4:76721835:76721836:+_ENSG00000138768_ENST00000264904|hu_mus|hu_hu_hu_mus_True|18_98 (ssRNA)
RNA: GGGAGUUCUACAGUCCGACGAUCGUUUGGCUGGGGUUCUGAGAUGCCUCUGGAAUAUAACUCAUGUUUGCUAAUAAAUCCUAGUUUCUCUAUGAAAUUCUCUUUGCCAAUCCUCUUUCAAUCAGUUUGCUUUAGUUUCUCUUUCAACAGAGGAUUGAGCAUCA
B16: chr3:176767854:176767855:-_ENSG00000177565_ENST00000430069|hu_hu|hu_hu_hu_mus_False|78_98 (ssRNA)
RNA: GGGAGUUCUACAGUCCGACGAUCGACAUCCUUGUUACUUGGAACAUCCUGCCCUCCUUCUCGUAUACAGUGUCUAAGCACGAGCUGCGUAGGGCCACUCGUGCUGUUCUCACUGAGGUUCCAGAUUCUUGCCGUGGAGUCUCCCAACAGAGGAUUGAGCAUCA
B17: chr7:135612270:135612271:-_ENSG00000105887_ENST00000393085|hu_mus|hu_hu_hu_mus_False|98_98 (ssRNA)
RNA: GGGAGUUCUACAGUCCGACGAUCGUUUUUUUCUGAGUAAGUAUUACGUACUUCAGUGGAAAACAAAACUUAACCUUUUAUUAAUGCGUGUUGUACCAAAAGCAGACAUUUUAGCUUCAUUUAUUCAAAAAUAUUAACAUUAAGCAACAGAGGAUUGAGCAUCA
B18: chr2:48026839:48026840:+_ENSG00000116062_ENST00000540021|hu_hu|hu_hu_hu_mus_False|1_28 (ssRNA)
RNA: GGGAGUUCUACAGUCCGACGAUCAUAGUGAGCCACUAGCGUCCUAAAUCUGGAACAGUGGCGGUCAUCCGAAAACUGGCCGAUGAAAAACUUGCCCAGUGAAGUGUCAACAAAGCAAACACCAUACACACGAGUGUGGCCAGACAACAGAGGAUUGAGCAUCA
B19: chr11:115359251:115359252:-_ENSMUSG00000020737_ENSMUST00000021083|mus_hu|FALSE|FALSE (ssRNA)
RNA: GGGAGUUCUACAGUCCGACGAUCUAUUUCUUCUUAAAAACACAGUACUAAGUGUCACAAAGCUUUCCCUCCAAUCUACUACUAGAAAACACUCAUGCCAUGGCCCACAGACCCAAGAGUCAAGGACAGAGAGAAACCUGUUCUCAACAGAGGAUUGAGCAUCA
B20: chr10:131959147:131959148:+_ENSG00000108010_ENST00000331244|hu_hu|FALSE|FALSE (ssRNA)
RNA: GGGAGUUCUACAGUCCGACGAUCCAAUUUCUUCAAGCGAAGGUUGAGAUCUUCUUUAAGAUGUUCAUUAGCGCUGGGUAGGAAGGAGCCACUAGAUGCAUGUCGCUGAACUUUUUUGGUCAACUCUGGGGCAUGUGCACCAUCCAACAGAGGAUUGAGCAUCA
B21: chr8:22473583:22473584:+_ENSG00000158941_ENST00000389279|hu_mus|motif|central (ssRNA)
RNA: GGGAGUUCUACAGUCCGACGAUCAGGUUCAGGAGGAGACACAACUUUUUCUGGAAGGCUCAGCAGCGUCUUAUAAAUUCGGUAGCCAAAAUCCCUCUGCAGCAUCUCUACAAACAGCUCAGCCAGCACCACUACCUCAAAAGACAACAGAGGAUUGAGCAUCA
B22: chr5:24309477:24309478:-_ENSMUSG00000028945_ENSMUST00000030787|mus_mus|FALSE|FALSE (ssRNA)
RNA: GGGAGUUCUACAGUCCGACGAUCGCAGUUUGCUUCCUCAGGUGGAAUAUAUCCCCAGUGUCCGCAGGCUCUGCAGCAGAAUUGUCACAUCACCGAGCACGAAGACUUUCCUUGUGAAGCUGCUCCAUCAAUCUUUUCUGCUUCCAACAGAGGAUUGAGCAUCA

In this test the target is T1, UNK ZnF1-3 (human, UniProt Q9C0B0 31-174).
T1 sequence: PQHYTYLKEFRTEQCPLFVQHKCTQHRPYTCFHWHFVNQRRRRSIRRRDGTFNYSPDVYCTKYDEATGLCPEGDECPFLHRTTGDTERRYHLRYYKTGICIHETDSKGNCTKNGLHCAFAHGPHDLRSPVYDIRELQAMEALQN
Briefly: nsRBNS (natural sequence RNA bind-n-seq); RBNS binding buffer (assumed for nsRBNS): 25 mM Tris pH 7.5, 150 mM KCl, 3 mM MgCl2, 0.01% Triton X-100, 500 ug/ml BSA, 20 U/ml SUPERase-In, 4 C; UNK is unkempt and MSI1 is Musashi-1; names of the RNAs are library labels; protein concentration not given here; high values mean tight binding.
In the case of B1, the binding signal was determined as 0.958 enrichment R.

As for B2, the binding signal amounted to 0.802 enrichment R.

With B3, the binding signal worked out at 1.65 enrichment R.

On to B4, for which the binding signal was 0.655 enrichment R.

With B5, the binding signal came out at 2.05 enrichment R.

In turn, B6 came in with a binding signal of 2.33 enrichment R.

As for B7, the binding signal was determined as 2.26 enrichment R.

For B8, the binding signal is 0.541 enrichment R.

The molecule B9 yielded a binding signal of 0.427 enrichment R.

The molecule B10 registered a binding signal of 0.478 enrichment R.

B11 yielded a binding signal of 1.03 enrichment R.

B12 came in with a binding signal of 0.564 enrichment R.

In turn, B13 returned a binding signal of 0.847 enrichment R.

B14 came in with a binding signal of 1.06 enrichment R.

B15 yielded a binding signal of 0.489 enrichment R.

In turn, B16 showed a binding signal of 0.495 enrichment R.

For B17, the binding signal was found to be 1.16 enrichment R.

In turn, B18 came in with a binding signal of 1.24 enrichment R.

Molecule B19 returned a binding signal of 1.29 enrichment R.

For the molecule B20, the binding signal amounted to 1.18 enrichment R.

B21 returned a binding signal of 1.82 enrichment R.

In turn, B22 returned a binding signal of 0.883 enrichment R.

Values taken from paper PMC12136788.
